# Assay results from PubChem BioAssay AID485281 (National Center for Advancing Translational Sciences (NCATS), 2010).
# Hit rate of the full screen: of about 350,000 compounds, about 260 (0.074%) were called active. The shares of active, inactive and inconclusive entries below differ from those in the screen. The call rests on the fitted dose curve; in most records, active means well fitted inhibition curve with a large enough effect; inconclusive means small, poorly fitted or top-dose-only effect; inactive means no such curve, though single readings can be large or run the other way. A potency beside an inconclusive call is a rough fit, not a confirmed value.
# Target: Ferritin light chain (Equus caballus) (UniProt P02791)
# Chain of UniProt P02791 (P02791 whole entry, looked up): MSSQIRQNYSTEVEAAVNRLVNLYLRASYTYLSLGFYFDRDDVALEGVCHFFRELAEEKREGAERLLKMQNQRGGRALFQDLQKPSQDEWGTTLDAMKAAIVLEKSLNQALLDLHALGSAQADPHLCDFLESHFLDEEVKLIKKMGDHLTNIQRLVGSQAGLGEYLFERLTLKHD
# Assay: qHTS Assay for Identification of Novel General Anesthetics; further: nearly all actives have a fitted effect of over 20% in size
# Conditions: apoferritin/1-aminoanthracene competitive binding, fluorescence; series mostly up to 77.5 µM
# Summary of the method: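 Steps: apoferritin (10 uM) was premixed with half-saturated 1-AMA in PBS, compounds were pin-transferred, plates stood 10 min at room temperature, fluorescence was read at 380/535 nm, and curves were fitted with a Hill equation.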
# Potency means the concentration at half of the fitted maximal effect; tags describe the fitted curve by direction and shape.
row,SMILES,Potency
1,Cc1c(CCOC(=O)C23CC4(C)CC(C)(CC(C)(C4)C2)C3)sc[n+]1CC(=O)c1ccccc1,"inconclusive: 25.1 µM [inhibitor, partial curve]"
2,CCCCc1ccc(CC2S/C(=C(\C#N)C(=O)N3CCOCC3)N(c3ccccc3)C2=O)cc1 (stereo not given),"inconclusive: 39.8 µM [inhibitor, partial curve]"
3,O=C(N/N=C/c1ccc(O)cc1O)c1ccc(NC(=O)C2CCCCC2)cc1,"inconclusive: 28.2 µM [inhibitor, partial curve]"
4,NC(=O)CCC(NC(=O)c1ccc(Cl)cc1)C(=O)O (stereo not given),inactive
5,Cc1cc(C)nc(SCC(=O)Oc2ccc3oc(=O)cc(C)c3c2)n1,inactive
6,CCOc1ccc(-c2cc(-c3nc(-c4ccc(OC)c(OC)c4)no3)[nH]n2)cc1,inactive
7,S=C(Nc1ccccc1)N1CCCCCCC1,"inconclusive: 10 µM [inhibitor, partial curve]"
8,CC(C)CNC(=O)c1cccc(NC(=O)c2ccc(Cl)c([N+](=O)[O-])c2)c1,"inconclusive: 28.2 µM [inhibitor, partial curve]"
9,Cc1ccc(-c2ccc(/C=C(\C#N)C(N)=S)o2)c([N+](=O)[O-])c1,"inconclusive: 14.1 µM [inhibitor, partial curve]"
10,CC(C)CN1C(=S)SC(C)(C)C1n1oc(=O)n(-c2ccc(Cl)cc2)c1=O (stereo not given),"inconclusive: 56.2 µM [inhibitor, partial curve]"
11,CCc1ccc(NC(=O)Nc2ccc3c(c2)CCC3)cc1,inactive
12,CC(CC(=O)N1CCN(c2cccc(Cl)c2)CC1)S(=O)(=O)c1ccc2c(c1)NC(=O)CO2 (stereo not given),inactive
13,Cc1ccccc1Cc1c(C)nc2nc(SCC(=O)NCc3ccco3)nn2c1C,"inconclusive: 35.5 µM [inhibitor, partial curve]"
14,CC(/C=N/NC(=O)Cc1cccs1)=C\c1ccccc1,inactive
15,NC(=O)CC(NC(=O)Cc1ccc(Cl)cc1)c1ccc(NC2CCCCCCC2)c([N+](=O)[O-])c1 (stereo not given),"inconclusive: 39.8 µM [inhibitor, single point]"
16,Cc1cccc(NC(=S)N2CCCCC2)c1,"inconclusive: 35.5 µM [inhibitor, single point]"
17,Oc1ccc(NC(=S)N=Nc2c(O)[nH]c3ccccc23)cc1,"inconclusive: 31.6 µM [inhibitor, partial curve]"
18,CCN(CC)c1ccc(NC(=O)CCc2nnc3ccc(N4CCCC4)nn23)c(C)c1,"inconclusive: 17.8 µM [inhibitor, partial curve]"
19,COc1ccc(N2Cc3cccc(C(=O)Nc4ccc(F)cc4)c3C2=O)cc1,"inconclusive: 8.91 µM [inhibitor, partial curve]"
20,Cc1ccc(C2=Nc3ccccc3N(CC(=O)NCc3ccccc3Cl)C(=O)C2)cc1C,inactive
21,O=C(NC(=S)Nc1ccc(Cc2ccncc2)cc1)c1ccc(F)cc1,"inconclusive: 35.5 µM [inhibitor, partial curve]"
22,CCCCOc1ccc(CSC(=N)N)cc1[N+](=O)[O-],"inconclusive: 28.2 µM [inhibitor, partial curve]"
23,Clc1ccc(Cn2nnc3ccccc32)cc1,"inconclusive: 14.1 µM [inhibitor, partial curve]"

row,SMILES,Potency
1,COc1ccc2occ(C(=O)c3cccs3)c2c1,active: 25.1 µM
2,CCN(Cc1cc2ccccc2[nH]c1=O)S(=O)(=O)c1ccc(OC)cc1,"inconclusive: 50.1 µM [inhibitor, single point]"
3,CCCCN1CCCC1CNC(=O)c1cc(C#N)c2ccccc2c1OC (stereo not given),inactive
4,Cc1ccc(CCNC(=O)CCS(=O)(=O)c2cc3c(cc2C)NC(=O)CO3)cc1,inactive
5,Cc1ccc(NC(=O)C2CCC(N3C(=O)C4CCCCC4C3=O)CC2)cc1 (stereo not given),"inconclusive: 12.6 µM [inhibitor, partial curve]"
6,COc1ccc(N/C=C/c2nc(SC)nnc2C)cc1,"inconclusive: 17.8 µM [inhibitor, partial curve]"
7,CCSc1nnc(NC(=O)NC(CC)(C(F)(F)F)C(F)(F)F)s1,"inconclusive: 10 µM [inhibitor, partial curve]"
8,COc1ccc(NC(=O)CSc2nc3nc(C)c(Cc4ccccc4Cl)c(C)n3n2)cc1OC,"inconclusive: 50.1 µM [inhibitor, single point]"
9,COc1ccc(Cl)cc1NC(=O)CCCN1C(=O)C(c2ccccc2)Oc2cccnc21 (stereo not given),inactive
10,COc1ccc(-n2c(=O)c3ccccc3n(CC(=O)NCCc3ccc(OC)c(OC)c3)c2=O)cc1,inactive
11,CCN(C(=O)CSc1cc(C)c2ccccc2n1)c1c(N)n(Cc2ccccc2)c(=O)[nH]c1=O,"inconclusive: 39.8 µM [inhibitor, single point]"
12,Cc1nn(C)c(C)c1/C=C(/C(=O)C(C)C)n1cncn1,inactive
13,CCOC(=O)C1C(=O)C=C(c2ccc([N+](=O)[O-])cc2)CC1c1ccccc1 (stereo not given),"inconclusive: 56.2 µM [inhibitor, single point]"
14,CN(Cc1ccccc1)S(=O)(=O)c1ccc(NC(=S)NC(=O)C(C)(C)C)cc1,inactive
15,CCCCOc1ccc(N(CC(=O)NC(C)(C)CC)C(=O)CCC(=O)Nc2ccccn2)cc1,"inconclusive: 31.6 µM [inhibitor, partial curve]"
16,CSc1ncccc1C(=O)N1CCN(S(=O)(=O)c2cc(C)ccc2C)CC1,inactive
17,CCN(CC)C(=O)c1c(-c2ccccc2)oc2ccc(O)cc12,"inconclusive: 35.5 µM [inhibitor, single point]"
18,Cc1ccc(S(=O)(=O)CCC(=O)c2cccc([N+](=O)[O-])c2)cc1,"inconclusive: 20 µM [inhibitor, partial curve]"
19,CCn1c(SCC(=O)NCC2CCCO2)nnc1-c1ccc(Cl)cc1 (stereo not given),inactive
20,Cc1cccn2c(=O)c(C(=O)NCCc3ccccc3)c(O)nc12,"inconclusive: 28.2 µM [inhibitor, partial curve]"
21,S=C(NCc1ccccc1)Nc1ccc2ccccc2c1,"inconclusive: 17.8 µM [inhibitor, partial curve]"
22,O=C(NNS(=O)(=O)c1ccccc1F)c1cccc(S(=O)(=O)N2CCOCC2)c1,inactive
